In all, about 310,000 compounds went through this assay and about 18,000 (5.8%) were called active. Inconclusive means that the source gave no clear call. Such entries were picked first, then a sample of the others. Calls follow the shape of the dose curve; as a rule, active = well fitted inhibition curve with a large enough effect; inconclusive = small, poorly fitted or top-dose-only effect, or another doubt; inactive = no such curve, though single readings can be large or run the other way. Potencies of inconclusive entries are left out as doubtful fits.
assay: Primary qHTS for delayed death inhibitors of the malarial parasite plastid, 48 hour incubation; conditions: P. falciparum luciferase growth in erythrocytes; series mostly up to 28.7 µM; activity change, negative = inhibition: at the top concentration
How it was run: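 Growth was read as firefly luciferase luminescence after a 48 h, 37 C, 5% CO2 exposure of compounds to reporter-bearing P. falciparum cultures (0.1% parasitemia, 2% hematocrit final) in Albumax-supplemented RPMI 1640.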
% is scaled to controls: 0 for no effect and ±100 for the full control effect; potency is read from the fitted curve at half-maximal effect; tags tell the direction and shape of the fitted curve.

Row | SMILES | Potency | activity change, negative = inhibition
1 | COc1ccccc1CNC(=O)c1ccc2c(=O)n(CCCN3CCCC3=O)c(=S)[nH]c2c1 | inconclusive [inhibitor, partial curve] | –
2 | CCCCn1c(Cc2ccccc2)nnc1SCC(=O)Nc1cc(C)on1 | – | inactive: -28.9%
3 | COc1ccc(-c2csc(N3CCC(C(N)=O)CC3)n2)cc1 | inconclusive [inhibitor, single point] | –
4 | CCOc1ccc(CCNC(=O)c2cc([N+](=O)[O-])ccc2N2CCOCC2)cc1OCC | inconclusive [inhibitor, single point] | –
5 | CCc1ccc(-n2c(=S)sc3c(=O)n(-c4ccccc4C)c(SCC(=O)O)nc32)cc1 | – | inactive: 12%
6 | CCOC(=O)C1(Cc2ccccc2Cl)CCN(C(=O)CCn2ccnc2C)CC1 | – | inactive: -15.3%
7 | CN(c1ccc(OC(=O)CN2C(=O)NC3(CCCC3)C2=O)cc1)S(=O)(=O)c1ccccc1 | – | inactive: 17.5%
8 | CCOc1ccc(N(C)S(=O)(=O)c2cc(-c3cc(C)no3)ccc2C(C)C)cc1 | inconclusive [inhibitor, single point] | –
9 | CSc1ncccc1C(=O)OCC(=O)N(C)c1c(N)n(Cc2ccccc2)c(=O)[nH]c1=O | – | inactive: -4%
10 | CC(C)(C)NC(=O)CSc1ccc(S(=O)(=O)N2CCOCC2)cn1 | inconclusive [inhibitor, single point] | –
11 | CC(C)C(=O)Nc1nnc(SCC(=O)NC2CCCC2)s1 | – | inactive: -1.71%
12 | Cc1ccccc1/C(N)=N/OC(=O)N1c2ccccc2Sc2ccccc21 | inconclusive [inhibitor, full curve, poor fit] | –
13 | COc1ccccc1CNC(=O)c1ccc(-c2ccccc2Cl)o1 | – | inactive: -25.5%
14 | O=C(Nc1ccc(Cl)cc1)N1CCCN(c2ccc(C(F)(F)F)cc2[N+](=O)[O-])CC1 | inconclusive [inhibitor, single point] | –
15 | O=C(Nc1cccn(Cc2c(Cl)cccc2Cl)c1=O)c1c(Cl)cccc1Cl | inconclusive [inhibitor, partial curve, poor fit] | –
16 | CSc1nc(Oc2cccc(C(F)(F)F)c2)cc(C(F)(F)F)n1 | inconclusive [inhibitor, single point] | –
17 | O=[N+]([O-])c1cccc(NC(=S)NCc2ccncc2)c1 | inconclusive [inhibitor, single point] | –
18 | Cc1oc2ccc(O)c(CN3CCOCC3)c2c1C(=O)c1ccc(Cl)cc1 | inconclusive [inhibitor, partial curve, poor fit] | –
19 | O=C(c1cccc(S(=O)(=O)N2CCOCC2)c1)N(Cc1ccc(F)cc1)Cc1ccco1 | inconclusive [inhibitor, partial curve, poor fit] | –
20 | Cc1ccc(SCCNC(=O)/C=C/c2ccccc2Cl)cc1 | inconclusive [inhibitor, full curve, poor fit] | –
21 | CSc1sc(-c2ccnc(SCC(=O)C(C)(C)C)n2)c2c1C(=O)CC(C)(C)C2 | inconclusive [inhibitor, single point] | –
22 | CC(=O)Nc1ccc(SCCN2CC[C@@H](C)CCC2=O)cc1 | – | inactive: 60.4%
23 | Cc1ccc(-c2ccc(=O)n(CCC(=O)N3CCN(Cc4ccccc4)CC3)n2)cc1 | inconclusive [inhibitor, single point] | –

Row | SMILES | Potency | activity change, negative = inhibition
24 | Cc1cc(C(=O)NC2CC(C)(C)Cc3c2cnn3-c2ccccc2)n(C)n1 (stereo not given) | – | inactive: -2.82%
25 | CCC(NC(=O)NCc1cccnc1)(C(F)(F)F)C(F)(F)F | – | inactive: -18.6%
26 | CCc1ccc(OCCCCCn2ccnc2)cc1 | inconclusive [inhibitor, partial curve, poor fit] | –
27 | CCCCc1c(C)nc(N2CCCC2)[nH]c1=O | active: 6.57 µM | –
28 | COc1ccc(S(=O)(=O)Nc2ccc3c(c2)OCO3)cc1 | inconclusive [inhibitor, partial curve, poor fit] | –
29 | CCOC(=O)Nc1sc(=S)n(C)c1C | – | inactive: 2.22%
30 | O=C1OCc2cc(NC(=O)C3COc4ccccc4O3)ccc21 (stereo not given) | – | inactive: 12.5%
31 | Cc1ccc(OCC(=O)N/N=C\c2cccn2C)c([N+](=O)[O-])c1 | – | inactive: 8.87%
32 | CCn1c2ccccc2c2cc(NS(=O)(=O)c3ccccc3C)ccc21 | inconclusive [inhibitor, partial curve] | –
33 | Cc1cccc(NC(=O)CCC(=O)N/N=C/c2cc([N+](=O)[O-])ccc2O)c1 | inconclusive [inhibitor, single point] | –
34 | COc1cc(C(=O)Nc2ccc(C)cc2)c(-n2cnnn2)cc1OC | – | inactive: -27.5%
35 | CCOc1nc(C#N)nc(N2CCCCC2)n1 | inconclusive [inhibitor, single point] | –
36 | COc1cc2c(cc1OC)C(=O)N1[C@H]3c4ccccc4OC[C@@H]3[C@H](c3ccccc3)[C@]1(C)C(=O)N2 | inconclusive [inhibitor, partial curve, poor fit] | –
37 | CC(=O)c1ccc(OCC(=O)OCC(=O)N(CC(C)C)c2c(N)n(Cc3ccccc3)c(=O)[nH]c2=O)cc1 | – | inactive: 2.61%
38 | CC1(C)CC(/C=C/c2ccccc2)=Nc2ccccc2N1 | inconclusive [inhibitor, partial curve, poor fit] | –
39 | C[n+]1cc(C(=O)N2CCCCC2)ccc1/C=C/c1c[nH]c2ccccc12 | inconclusive [inhibitor, full curve] | –
40 | O=C(Nc1ccccc1)N1CCN(C(=O)Nc2ccccc2)CC1 | – | inactive: -2.63%
41 | COc1cc(OC)c2ccc(=O)oc2c1C(CCN1CCCCC1)c1ccc(N(C)C)cc1 (stereo not given) | inconclusive [inhibitor, single point] | –
42 | O=C(Cn1cnc2ccccc2c1=O)NCCC(=O)Nc1ccccc1C(F)(F)F | – | inactive: 15.6%
43 | CCN(C(=S)NCCOC)c1cccc2ccccc12 | inconclusive [inhibitor, single point] | –
44 | COc1ccc(NC(=O)CCCn2c(=O)c3sccc3n(Cc3cccc(C)c3)c2=O)cc1 | inconclusive [inhibitor, partial curve] | –
45 | Cc1cc2ncc(S(=O)(=O)C(C)(C)C)c(N)n2n1 | inconclusive [inhibitor, single point] | –

Reference: PubChem BioAssay AID504832 (National Center for Advancing Translational Sciences (NCATS), 2011)
